Where two headings read alike, the source gives them in different places. Some of the results follow.
System: T1, C. trachomatis L2/434/Bu expressing GFP (CTL2-GFP)
T1 construct: L2/434/Bu GFP intracellular growth in HeLa cells
Design: species or system HeLa; C. trachomatis total inclusion area by high-content imaging, normalised to DMSO
Method in brief: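 High-content imaging followed the bulk GFP/resorufin measurement: fixed, Hoechst-stained cells were scored for GFP inclusions and host nuclei per well. Total inclusion area and count served as growth proxies, nuclei number as the viability proxy. MIC calculation matched the bulk assay.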

[1] = total inclusion area; 28.5 h, 10 µM; inhibitor

**Q.** `CC(NCCCN(C)C)=C1C(=O)c2ccccc2C1=O` [CBK262674] was tested. Which “% of control remaining” value [1] did it give?
**A.** Its value is 90.859.

**Q.** How did the “% of control remaining” value [1] turn out when `COc1cc([C@@]23CC[C@@H](NC(=O)Nc4cccc(Cl)c4)C[C@@H]2N(C)CC3)cc(OC)c1OC` [CBK039212] was run?
**A.** The value was 95.8448.

**Q.** How did the “% of control remaining” value [1] turn out when `Cc1cc(OC(C)C(=O)Nc2ccccc2C(=O)N2CCCCC2)ccc1Cl` (stereo not drawn) [CBK269696] was run?
**A.** The value was 95.7264.

**Q.** How did the “% of control remaining” value [1] turn out when `N#CCCN(C(=O)NCc1cccnc1)C1CCCCC1` [CBK156355] was run?
**A.** The value was 147.085.

**Q.** Which “% of control remaining” value [1] does the source give for `COc1ccccc1C(=O)Nc1ccc([C@@H](O)[C@H]2COCC(=O)N2)cc1` [CBK289688] here?
**A.** Its value is 114.761.

**Q.** For `c1csc(COc2nccnc2-c2cc3ccccc3s2)c1` [CBK106786], which “% of control remaining” value [1] is on record?
**A.** Its value is 79.1752.

**Q.** With `CN(C)c1ccccc1-c1cc(N2CCN(S(=O)(=O)c3ccc(Cl)cc3)CC2)ncn1` [CBK037039] as the compound, how does the “% of control remaining” value [1] read?
**A.** The value was 74.5462.

**Q.** With `N#CC1=C(N)Oc2[nH]nc(-c3ccc4ccccc4c3)c2C1c1cn(CC(N)=O)nc1-c1ccccc1` (stereo not drawn) [CBK266624] as the compound, how does the “% of control remaining” value [1] read?
**A.** The value was 89.5589.

**Q.** For `CC(C(=O)Nc1ccc2c(c1)OCO2)N(c1ccc(Cl)cc1)S(C)(=O)=O` (stereo not drawn) [CBK268595], which “% of control remaining” value [1] is on record?
**A.** Its value is 116.78.

**Q.** With `CC1(CNC(=O)c2cn3cc(Cl)ccc3n2)COC1` [CBK281748] as the compound, how does the “% of control remaining” value [1] read?
**A.** Its value is 115.37.

**Q.** Which “% of control remaining” value [1] does the source give for `CC(C)CN1CCCN(S(=O)(=O)c2ccc(C(F)(F)F)cc2Cl)CC1` [CBK062943] here?
**A.** The value was 103.531.

**Q.** For `O=C(O)CCCNS(=O)(=O)/C=C/c1ccccc1` [CBK287170], which “% of control remaining” value [1] is on record?
**A.** Its value is 88.6773.

**Q.** For `CC(C)(C)OC(=O)N1CCC[C@@H](C(=O)c2cccs2)C1` [CBK284310], which “% of control remaining” value [1] is on record?
**A.** The value was 73.7887.

**Q.** With `COc1ccc2[nH]cc(CCNC(=O)Cc3ccsc3)c2c1` [CBK116205] as the compound, how does the “% of control remaining” value [1] read?
**A.** Its value is 100.592.

**Q.** For `COc1ccc(C2(CN3CCC(NC(C)=O)CC3)CC2)cc1` [CBK285357], which “% of control remaining” value [1] is on record?
**A.** Its value is 86.1326.

**Q.** For `O=S(=O)(Nc1ccc2c(ccn2Cc2ccccc2)c1)c1cc(C(F)(F)F)cc(C(F)(F)F)c1` [CBK159540], which “% of control remaining” value [1] is on record?
**A.** The value was 45.518.

**Q.** `Cc1ccc(-c2ccc(N3CCCC(C(=O)O)C3)nn2)cc1C` (stereo not drawn) [CBK300513] was tested. Which “% of control remaining” value [1] did it give?
**A.** The value was 73.4175.

**Q.** How did the “% of control remaining” value [1] turn out when `Cc1ccc(S(=O)(=O)NC[C@H]2O[C@@H](CC(=O)N3CCc4ccccc43)[C@H](O)[C@@H]2O)cc1` [CBK288917] was run?
**A.** The value was 99.6121.

**Q.** For `Cc1sc2nc(C(C)Nc3ccc4[nH]c(=O)[nH]c4c3)[nH]c(=O)c2c1C` (stereo not drawn) [CBK297915], which “% of control remaining” value [1] is on record?
**A.** The value was 89.6949.

**Q.** `O=C1NC2(CCNCC2)Oc2ccc(-c3cccnc3)cc21` [CBK086611] was tested. Which “% of control remaining” value [1] did it give?
**A.** Its value is 108.385.

**Q.** For `Cc1c(C(=O)O)sc2nc(SCC(=O)NCc3ccccc3)[nH]c(=O)c12` [CBK301214K], which “% of control remaining” value (total inclusion area, 28.5 h, 10 µM, inhibitor) is on record?
**A.** Its value is 111.653.

**Q.** How did the “% of control remaining” value [1] turn out when `CC(=O)N1CCN(Cc2c(C3CCCC3)[nH]c3ncccc23)CC1` [CBK285339] was run?
**A.** The value was 96.4254.

**Q.** With `O=C(Cc1ccc(F)cc1Cl)N1CCC(O)(c2ccccn2)CC1` [CBK283755] as the compound, how does the “% of control remaining” value [1] read?
**A.** The value was 97.1373.

**Q.** How did the “% of control remaining” value [1] turn out when `NC(=O)c1ccccc1NC(=O)COc1ccccc1` [CBK262599] was run?
**A.** The value was 105.499.

**Q.** Which “% of control remaining” value [1] does the source give for `COc1ccc2nc(C(=O)O)sc2c1` [CBK026523N] here?
**A.** Its value is 97.5368.

**Q.** For `CN1CC(CO)CCC1Cc1c[nH]c2ccccc12` (stereo not drawn) [CBK011468], which “% of control remaining” value [1] is on record?
**A.** The value was 97.4221.

**Q.** `Cn1c(N2CCOCC2)cc(=O)c2ccccc21` [CBK007775] was tested. Which “% of control remaining” value [1] did it give?
**A.** The value was 103.126.

**Q.** For `Cc1cc(NS(=O)(=O)N2CCOCC2)no1` [CBK269894], which “% of control remaining” value [1] is on record?
**A.** The value was 111.039.

**Q.** For `CN1CCC[C@H]1C(=O)N1CCN(C(=O)c2ccco2)CC1` [CBK144449], which “% of control remaining” value [1] is on record?
**A.** Its value is 102.152.

**Q.** With `CC(=O)Nc1onc(C)c1-c1nc(-c2ccc(Cl)cc2Cl)cs1` [CBK067735] as the compound, how does the “% of control remaining” value [1] read?
**A.** Its value is 76.5193.

**Q.** For `COc1cc(CNc2cncc(-c3cccs3)n2)cc(OC)c1OC` [CBK065526], which “% of control remaining” value [1] is on record?
**A.** Its value is 89.767.

**Q.** How did the “% of control remaining” value [1] turn out when `Cc1cc(=O)oc2cc(OC(C)C(=O)NCC(=O)O)ccc12` (stereo not drawn) [CBK286829] was run?
**A.** Its value is 99.5757.

**Q.** Which “% of control remaining” value [1] does the source give for `O=C(c1ccco1)N1CCN(c2cncc(-c3ccc4ccccc4c3)n2)CC1` [CBK065184] here?
**A.** Its value is 103.155.

**Q.** With `c1ccc(Nc2nc3nonc3n3cnnc23)cc1` [CBK287278] as the compound, how does the “% of control remaining” value [1] read?
**A.** The value was 96.1824.

**Q.** For `CC1CCN(S(=O)(=O)c2ccc(NC(=O)C3=COCCO3)cc2)CC1` [CBK295332], which “% of control remaining” value [1] is on record?
**A.** The value was 115.931.

**Q.** Which “% of control remaining” value [1] does the source give for `COC(=O)[C@@H](C)NC(=O)[C@H]1CN(C(=O)c2cccnc2)CCN1C(=O)NC(C)C` [CBK289630] here?
**A.** The value was 105.377.

**Q.** For `Nc1nc(=O)n([C@@H]2O[C@H](CO)[C@H](O)C2O)cc1I` (stereo partly drawn) [CBK201306], which “% of control remaining” value [1] is on record?
**A.** The value was 100.659.

**Q.** With `CCN(CC)C(=O)c1cccc(NS(=O)(=O)c2ccc(C)c(C(=O)O)c2)c1` [CBK296665] as the compound, how does the “% of control remaining” value [1] read?
**A.** The value was 111.218.

**Q.** How did the “% of control remaining” value [1] turn out when `O=C(O)CCCCCN1C(=O)/C(=C/c2ccc(O)c(O)c2)SC1=S` [CBK262771] was run?
**A.** The value was 97.7567.

— publication PMC12040169 (PLOS Biology, 2025)
